Test results: the supplement of paper PMC7826260
This is one part of the list. Cleavage of a single-stranded DNA pool by Rep nickase domains was read by sequencing for 1 h at 37 °C with 3 µM enzyme; only the middle of the 90-letter strands is printed. Uncut reads are compared with the no-enzyme pool on a log2 scale; more negative means more cut, near 0 not cut, and no call is made. The scaling is to total reads; values above 0 arise when much of the pool is cut.

Tests used:
Assay in all cases: uncleaved DNA left, log2 of reads against the no-enzyme library (log2 ratio); higher = less cleavage (more negative = more Rep cleavage of the k-mer); sequences stand for … in CTCGTCCG…ACCGGAGA
[1] = test system: T1, Rep nickase domain of Muscovy duck circovirus
T1 sequence (protein, residues 1-111, tag omitted): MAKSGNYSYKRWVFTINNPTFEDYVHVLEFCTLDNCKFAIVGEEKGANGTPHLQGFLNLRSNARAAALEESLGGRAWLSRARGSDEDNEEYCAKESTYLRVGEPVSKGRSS
Procedure: (§1)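 A pool of 90-nt single-stranded DNAs with seven random bases just before the constant AC of the nick site (name = the seven bases) was cut by 3 µM recombinant His6-SUMO-tagged Rep nickase domain (300 nM DNA, 50 mM HEPES pH 8.0, 50 mM NaCl, 1 mM MnCl2, 1 h, 37 °C, three replicates). Uncut DNA was amplified and sequenced.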

[2] = test system: T2, Rep nickase domain of banana bunchy top virus
T2 sequence (protein, residues 1-94, tag omitted): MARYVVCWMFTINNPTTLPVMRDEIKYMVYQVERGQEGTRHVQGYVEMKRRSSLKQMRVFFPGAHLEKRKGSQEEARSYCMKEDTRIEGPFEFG
Procedure: as §1

[3] = test system: T3, Rep nickase domain of cabbage leaf curl virus
T3 sequence (protein, residues 1-116, tag omitted): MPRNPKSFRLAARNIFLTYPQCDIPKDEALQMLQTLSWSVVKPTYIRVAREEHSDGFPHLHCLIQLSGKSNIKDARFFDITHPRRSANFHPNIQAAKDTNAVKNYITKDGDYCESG
Procedure: as §1

[4] = test system: T4, Rep nickase domain of chickpea chlorotic dwarf virus
T4 sequence (protein, residues 1-124, tag omitted): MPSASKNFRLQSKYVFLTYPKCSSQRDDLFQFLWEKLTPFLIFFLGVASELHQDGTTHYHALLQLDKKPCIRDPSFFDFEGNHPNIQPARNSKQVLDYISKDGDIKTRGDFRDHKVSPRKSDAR
Procedure: as §1

[5] = test system: T5, Rep nickase domain of faba bean necrotic yellows virus
T5 sequence (protein, residues 1-98, tag omitted): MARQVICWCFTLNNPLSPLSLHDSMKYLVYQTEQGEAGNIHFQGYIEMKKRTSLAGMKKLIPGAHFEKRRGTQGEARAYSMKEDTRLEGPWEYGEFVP
Procedure: as §1

[6] = test system: T6, Rep nickase domain of maize striate mosaic virus
T6 sequence (protein, residues 1-117, tag omitted): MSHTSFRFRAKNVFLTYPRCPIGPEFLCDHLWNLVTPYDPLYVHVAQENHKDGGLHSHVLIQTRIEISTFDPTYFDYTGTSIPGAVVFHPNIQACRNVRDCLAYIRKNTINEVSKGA
Procedure: as §1

[7] = test system: T7, Rep nickase domain of porcine circovirus 2
T7 sequence (protein, residues 2-116, tag omitted): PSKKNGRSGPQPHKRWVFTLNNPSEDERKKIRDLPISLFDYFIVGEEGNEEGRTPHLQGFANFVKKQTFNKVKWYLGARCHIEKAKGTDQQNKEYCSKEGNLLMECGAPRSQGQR
Procedure: as §1

[8] = test system: T8, Rep nickase domain of tomato golden mosaic virus
T8 sequence (protein, residues 1-124, tag omitted): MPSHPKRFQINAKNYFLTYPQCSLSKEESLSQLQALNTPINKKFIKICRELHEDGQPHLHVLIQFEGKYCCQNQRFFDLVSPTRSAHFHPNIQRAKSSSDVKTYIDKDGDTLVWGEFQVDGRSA
Procedure: as §1

[9] = test system: T9, Rep nickase domain of tomato yellow leaf curl virus
T9 sequence (protein, residues 1-136, tag omitted): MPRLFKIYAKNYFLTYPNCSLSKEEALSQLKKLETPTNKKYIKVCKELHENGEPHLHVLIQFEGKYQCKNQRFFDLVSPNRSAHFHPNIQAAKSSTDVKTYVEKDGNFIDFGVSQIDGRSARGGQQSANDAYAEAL
Procedure: as §1

[10] = test system: T10, Rep nickase domain of wheat dwarf virus
T10 sequence (protein, residues 1-137, tag omitted): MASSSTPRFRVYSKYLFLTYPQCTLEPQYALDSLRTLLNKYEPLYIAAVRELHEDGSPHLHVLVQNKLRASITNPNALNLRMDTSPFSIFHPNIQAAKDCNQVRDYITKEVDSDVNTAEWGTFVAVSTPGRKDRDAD
Procedure: as §1

Sequence | uncleaved DNA left (log2) [1] | uncleaved DNA left (log2) [2] | uncleaved DNA left (log2) [3] | uncleaved DNA left (log2) [4] | uncleaved DNA left (log2) [5] | uncleaved DNA left (log2) [6] | uncleaved DNA left (log2) [7] | uncleaved DNA left (log2) [8] | uncleaved DNA left (log2) [9] | uncleaved DNA left (log2) [10]
TACCGGA | -0.14 | -0.0733 | 0.0843 | 0.191 | 0.0486 | 0.0537 | -0.0753 | -0.00287 | -0.0707 | -0.0651
TGACTTT | -0.1 | -0.0256 | 0.27 | -0.465 | -0.147 | 1.08 | -0.11 | -0.158 | 0.0523 | 0.152
ACACCGT | -0.0437 | -0.173 | -0.503 | -0.649 | 0.0355 | -0.979 | 0.0792 | -0.0333 | -0.241 | -0.144
GTTTTGG | 0.185 | 0.0107 | 0.231 | 0.516 | 0.0974 | 0.402 | 0.109 | 0.0655 | 0.0594 | 0.0491
AGTGCTA | -0.0239 | 0.00255 | 0.175 | 0.359 | -0.0752 | 0.843 | -0.239 | 0.111 | -0.0319 | 0.0511
AGGGACA | 0.168 | 0.248 | 1.02 | 2.16 | 0.115 | 2.33 | 0.283 | 0.178 | 0.199 | 0.23
CCATTTC | 0.0421 | 0.0815 | -0.293 | -0.546 | 0.0445 | -1.06 | 0.154 | -0.0139 | 0.167 | 0.0284
ACATAAG | -0.0273 | 0.0722 | -0.445 | 0.836 | 0.0587 | 0.112 | 0.112 | -0.00887 | 0.0423 | -0.101
GTCTTGG | 0.107 | 0.127 | 0.363 | 0.845 | 0.0987 | 1.6 | 0.287 | 0.19 | 0.174 | 0.157
AGGTACA | 0.00586 | -0.0122 | 0.178 | 0.0958 | -0.00754 | 0.735 | -0.0681 | -0.0342 | 0.0748 | 0.0737
GAGAGGA | 0.159 | 0.0953 | 0.462 | 0.756 | 0.012 | 0.792 | 0.0111 | 0.13 | 0.0718 | 0.167
ATAGCGG | -0.0087 | 0.0207 | -0.197 | 0.135 | 0.0498 | -0.455 | 0.19 | 0.0111 | -0.0672 | -0.0314
AATTACG | 0.0131 | -0.045 | -0.771 | 0.0325 | -0.0118 | -0.817 | 0.198 | 0.0288 | 0.0384 | 0.00666
CCTGCAT | -0.0373 | -0.00894 | -0.389 | -0.753 | -0.0484 | -0.843 | -0.0307 | -0.0135 | -0.0815 | -0.116
GTTTGGA | 0.0485 | 0.00819 | 0.202 | 0.748 | -0.0494 | 1.45 | 0.106 | 0.0713 | -0.035 | -0.0367
ATGGTCA | 0.0996 | 0.0111 | 0.0462 | -0.505 | -0.0702 | 0.0822 | -0.117 | 0.021 | -0.053 | -0.0199
GCGTTCG | 0.0966 | 0.028 | -0.56 | -0.473 | -0.0537 | -0.713 | 0.124 | 0.119 | -0.0113 | 0.0492
CCCCGCA | -0.163 | -0.0994 | -0.28 | -0.793 | -0.259 | -1.03 | -0.0901 | -0.159 | -0.156 | -0.0525
GTAGCCG | -0.0976 | -0.0867 | -0.815 | -0.581 | -0.0464 | -1.03 | 0.0621 | -0.0805 | -0.0347 | -0.135
CCGCTTC | 0.0278 | 0.0117 | 0.172 | -0.235 | -0.00776 | -0.409 | 0.00925 | -0.0484 | -0.158 | -0.0316
TTGCACC | -0.0395 | -0.143 | -0.471 | -0.686 | -0.0221 | -0.99 | -0.0701 | -0.116 | -0.0976 | -0.0739
AGTTGAT | -0.0508 | 0.0307 | 0.198 | 0.915 | 0.134 | 1.43 | -3 | 0.188 | 0.0418 | 0.166
CGTGAAG | 0.0343 | -0.119 | -0.809 | -0.314 | 0.111 | -0.951 | 0.115 | -0.0991 | 0.00241 | -0.119
TGGTTGG | 0.0561 | -0.00406 | -0.0218 | -0.238 | 0.000963 | -0.567 | 0.137 | 0.0441 | 0.058 | 0.00203
ATCACGC | 0.0218 | 0.0169 | -0.195 | -0.503 | 0.127 | -0.919 | 0.186 | -0.0381 | -0.105 | -0.118
CATGCGG | 0.0338 | 0.0931 | 0.286 | 1 | 0.0641 | 0.558 | 0.165 | 0.114 | 0.0497 | 0.0917
TTGTGGG | 0.0541 | -0.0611 | -0.305 | -0.472 | 0.0405 | -0.761 | 0.00913 | 0.0544 | 0.0373 | -0.144
CGTCTAC | 0.0732 | 0.058 | -0.032 | -1.22 | -0.0851 | -0.201 | 0.0229 | -0.0904 | 0.0669 | -0.109
GCTTCGG | 0.0212 | 0.0624 | 0.281 | 1.12 | -0.0272 | 1.24 | 0.159 | -0.044 | -0.144 | -0.0508
TCACACC | -0.0546 | -0.126 | -0.0636 | -0.518 | -0.0702 | -0.613 | -0.311 | 0.0138 | -0.0139 | -0.0797
